Out of some 45,000 compounds screened, about 65 (0.1%) were called active. Calls follow the shape of the dose curve; as a rule, active = well fitted activation curve with a large enough effect; inconclusive = small, poorly fitted or top-dose-only effect; inactive = no such curve, though single readings can be large or run the other way. The list shows a part of the results.
target: Galactocerebrosidase (Homo sapiens) (UniProt P54803); assay: A Novel Cell-Based Assay to Identify Small Molecules for B -Galactocerebrosidase; settings: 145M-Twi-hGALC-G270D cells (Twitcher mouse brain line with human GALC G270D), HMU-beta-Gal fluorescence, 48 h; series mostly up to 57.5 µM; activation: at the top concentration; also: nearly all actives have a fitted effect of over 65% in size; as to activation: 0% is about no effect
Outline: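 Fluorogenic HMU-b-Gal hydrolysis (0.1 mM final, pH 5.2 citrate-phosphate with 1 mg/mL sodium taurocholate; carbonate stop buffer) measures mutant GALC activity after compound treatment of live 145M-Twi Twitcher brain cells stably carrying human GALC-G270D, with wild-type GALC line alongside; activation sought.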
Potency is read from the fitted curve at half-maximal effect.

Sequence of UniProt P54803 (P54803 whole entry, looked up): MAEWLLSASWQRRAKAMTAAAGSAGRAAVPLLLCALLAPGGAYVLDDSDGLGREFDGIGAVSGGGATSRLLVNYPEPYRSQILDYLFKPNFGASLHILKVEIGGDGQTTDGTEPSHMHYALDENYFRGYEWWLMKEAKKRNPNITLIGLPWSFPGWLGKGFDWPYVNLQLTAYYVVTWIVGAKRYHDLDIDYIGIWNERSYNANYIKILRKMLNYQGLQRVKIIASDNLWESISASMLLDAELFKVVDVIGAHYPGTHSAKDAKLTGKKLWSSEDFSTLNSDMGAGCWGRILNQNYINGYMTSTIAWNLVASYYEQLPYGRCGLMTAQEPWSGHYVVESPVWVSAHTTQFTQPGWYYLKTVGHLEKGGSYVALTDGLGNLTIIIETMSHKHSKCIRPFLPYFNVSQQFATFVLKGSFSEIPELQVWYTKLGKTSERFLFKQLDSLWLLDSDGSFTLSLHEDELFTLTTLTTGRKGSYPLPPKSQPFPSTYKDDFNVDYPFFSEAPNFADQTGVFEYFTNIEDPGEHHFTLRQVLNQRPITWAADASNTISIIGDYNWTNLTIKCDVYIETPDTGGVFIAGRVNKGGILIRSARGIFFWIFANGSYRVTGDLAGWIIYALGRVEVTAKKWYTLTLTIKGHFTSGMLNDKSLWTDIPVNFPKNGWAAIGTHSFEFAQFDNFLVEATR

SMILES | activation | Potency
Cc1ccc(C)c(CSc2cn(CC(=O)N3CCCCCC3)c3ccccc23)c1 | inactive: -17.7% | –
CCOC(=O)c1cnc2ccc(C(=O)OC)cc2c1Nc1ccccc1CC | inactive: -29.2% | –
Cc1ccccc1Cn1nnc2c(=O)[nH]c(C3CCN(C(=O)c4ccccc4)CC3)nc21 | inactive: -11.6% | –
CCOc1ccc(C2c3[nH]c4ccccc4c3CCN2C(=O)Cc2cccc(OCC)c2OCC)cc1 (stereo unspecified) | inactive: -8.64% | –
Cc1cc(C)cc(-n2ccnc2SCC(=O)Nc2nc3ccccc3s2)c1 | inactive: -31.3% | –
COc1ccc(-c2nc3sc(CCNC(=O)c4cccc(C(F)(F)F)c4)c(C)n3n2)cc1 | inactive: -23.3% | –
CCOC(=O)c1c(S(=O)(=O)NCC(=O)Nc2ccc(C)c(Cl)c2)c(C)n(C)c1C | inactive: -4.73% | –
CCC(C(=O)NCc1ccccc1OC)n1nc(C)n2c(cc3sccc32)c1=O (stereo unspecified) | inactive: -7.26% | –
CC(C)(C)n1cnc2cc(NCc3ccccc3Cl)ccc21 | inactive: -10.6% | –
COc1ccc(NC(=O)C2CCCN2S(=O)(=O)c2cccc3cccnc23)cc1OC (stereo unspecified) | inactive: -9.95% | –
CC(C)Oc1ccc(CNC(=O)c2ccc(NC(=O)N3CCSc4ncccc43)cc2)cc1 | inactive: 0.657% | –
CSc1ncc(C(=O)NCc2ccccc2)c(-c2ccccc2)n1 | inactive: -3% | –
Cc1ccc(C)c(Nc2nn3c(=O)c4ccc(C(=O)NCCc5ccccc5)cc4nc3s2)c1 | inactive: -4.69% | –
CN(C)c1ccc(CNC(=O)C2CCN(S(=O)(=O)c3ccc4c(ccn4C)c3)CC2)cc1 | inactive: -7.8% | –
COc1ccc(C(=O)Nc2nc3c(s2)CCc2cc(OC)ccc2-3)cc1 | inactive: 10.6% | –
COCCCn1c(SCC(=O)NCc2ccccc2)nc2c(sc3ccccc32)c1=O | inactive: -1.12% | –
CCN(C(=O)Cn1cc(S(=O)(=O)Cc2ccccc2Cl)c2ccccc21)c1ccccc1 | inactive: -11% | –
CN(C)c1ccc2nc3ccc(=[N+](C)C)cc-3sc2c1 | inactive: -14.9% | –
Cc1ccc(C)c(N2CCN(C(=O)Cn3c(-c4cccs4)cc4ccccc43)CC2)c1 | inactive: -12.2% | –
Cc1n[nH]c(C)c1S(=O)(=O)N1CCCC(C(=O)Nc2ccc(Cl)cc2)C1 (stereo unspecified) | inactive: -26.5% | –
Cc1ccc(N2CCN(C(=O)c3c4c(nc5ccccc35)C(=O)N(C3CCCCC3)C4)CC2)c(C)c1 | inactive: -9.08% | –
C[C@@H](CN(C)C)CN1c2ccccc2Sc2ccccc21 | inactive: -14.5% | –
CCOC(=O)c1ccc(NC(=O)C(CC)Sc2nc3ncccc3o2)cc1 (stereo unspecified) | inactive: -6.22% | –
CCOc1cc(C2c3c(oc4ccc(F)cc4c3=O)C(=O)N2Cc2ccco2)ccc1O (stereo unspecified) | inactive: -15.3% | –

SMILES | activation | Potency
Cc1ccc(-n2c(SCC(=O)Nc3ccc4c(c3)OCO4)nc3c([nH]c4ccccc43)c2=O)cc1 | inactive: -16.8% | –
Cc1ccc(-c2cc(C(=O)NCc3cnn(C)c3)c3cc(Br)ccc3n2)cc1 | inactive: -7.92% | –
COc1ccc(C2C(=O)c3ccccc3C2=O)cc1 | inactive: -9.68% | –
CCCCNc1nc(Oc2ccc(OCC(N)=O)nn2)nc(N2CCOCC2)n1 | inactive: -8.61% | –
Cc1ccc(-n2ncc3c(N4CCN(CCO)CC4)ncnc32)cc1Cl | inactive: -14.6% | –
COc1ccc(CCNc2ncnc3c2c(-c2ccccc2)cn3-c2ccc(F)cc2)cc1OC | inactive: 0.853% | –
CCC(=O)C1=C(c2cccc([N+](=O)[O-])c2)N(C(=O)CC)n2c(nnc2-c2ccccc2)S1 | inactive: -23.3% | –
CCc1ccccc1N(C)C(=O)c1cnc(N2CCOCC2)c2ccccc12 | inactive: -10.7% | –
Cc1cccc(C(=O)N2CCc3cc(CNC(=O)Cc4ccc(F)cc4)ccc32)c1 | inactive: -45% | –
Cc1ccc(Cc2nc3ccccc3nc2SCC(=O)NCc2ccc(F)cc2)cc1 | inactive: -15.6% | –
Cc1cc(Br)ccc1NC(=O)c1cn(C2CCCC2)c(=O)c2c1c1ccccc1n2C | inactive: -11.7% | –
O=C(Nc1ccc(SC(F)F)cc1)c1cc(-c2cccs2)on1 | inactive: -12.3% | –
CC1CCN(C(=O)CN2CCSc3ccccc32)CC1 | inactive: -7.8% | –
CC(NC(=O)c1nn(C)c2c1CSc1ccccc1-2)c1ccccc1 (stereo unspecified) | inactive: -10.7% | –
COC(=O)c1sc2cccc(F)c2c1S(=O)(=O)N1CCN(c2ccccc2OC)CC1 | inactive: -5.12% | –
CCNc1nc2c(c(=O)[nH]c(=O)n2C)n1CC(O)COc1ccc(Cl)cc1Cl (stereo unspecified) | inactive: -19.9% | –
O=C(CCS(=O)(=O)c1cccs1)Nc1ccc(C(=O)Nc2cccc(Cl)c2)cc1 | inactive: 0.51% | –
COc1cc(OC)cc(C(=O)N2CCC(c3ccncc3)CC2)c1 | inactive: -1.72% | –
COc1ccc(N2CC(c3nc(-c4cc(OC)c(OC)c(OC)c4)no3)CC2=O)cc1Cl (stereo unspecified) | inactive: -3.1% | –
O=C(Cc1ccccc1)Nc1c(C(=O)N2CCN(c3ccc(F)cc3)CC2)oc2ccccc12 | inactive: -17.8% | –
COc1ccc(CNc2ccc3cc(S(=O)(=O)N4CCCCC4)ccc3n2)cc1 | inactive: -14.6% | –
Cc1ccc(C)c(NC(=O)CN2C(=O)CSc3nc(C)cc(C)c32)c1 | inactive: -16.2% | –
O=C(NCCc1ccccc1)c1ccc2c(c1)CCN2S(=O)(=O)c1ccc(Br)cc1 | inactive: -12.6% | –
CCOc1ccc(C(=O)Nc2nnc(S(=O)(=O)N(CC)c3ccccc3C)s2)cc1 | inactive: -15.4% | –

SMILES | activation | Potency
CC(=O)c1cccc(NC(=O)CCCN2C(=O)COc3ccc(C)cc32)c1 | inactive: 9.03% | –
Cc1cc(C)c2c(=O)c3c(oc2c1)C(=O)N(Cc1ccc(F)cc1)C3c1cccc(O)c1 (stereo unspecified) | inactive: -1.31% | –
CCCC(=O)NCC(c1ccc2c(c1)OCO2)N1CCOCC1 (stereo unspecified) | inactive: -20.3% | –
O=C(COc1ccc(Cl)cc1)Nc1ccccc1C(=O)OCc1cc(=O)n2ccsc2n1 | inactive: -11.3% | –
COc1ccccc1CNC(=O)CN1C(=O)CSc2c1c(C)nn2-c1ccccc1 | inactive: -8.47% | –
Cc1ccc(CNC(=O)CN(c2ccc(C(C)C)cc2)S(=O)(=O)c2c(C)n[nH]c2C)cc1 | inactive: -8.48% | –
COc1cccc(NC(=O)CN2CCCN(S(=O)(=O)c3ccc(Br)cc3)CC2)c1 | inactive: -17.3% | –
COc1ccc(Cn2ccnc2SCC(=O)Nc2ccc(C)cc2C)cc1 | inactive: -14.5% | –
CC(C)(C)CC(=O)Nc1nnc2n1CCS2 | inactive: -11.3% | –
Cc1ccc(C)c(N2CCN(C(=O)Cn3ncc4c(=O)oc5ccc(C)cc5c43)CC2)c1 | inactive: -15.4% | –
COc1ccc(S(=O)(=O)NCCc2nnc3ccc(SCC(=O)Nc4ccc(C(F)(F)F)cc4)nn23)cc1 | inactive: -6.26% | –
C/C=C/C(=O)N(CC)c1ccccc1C | inactive: -31.2% | –
CC(=O)c1ccc(NS(=O)(=O)c2cc3[nH]c(=O)c(=O)[nH]c3cc2C)cc1 | inactive: -9.82% | –
COC(=O)c1ccc2c(=O)n(CCCCCC(=O)NCc3ccccc3)c(=O)[nH]c2c1 | inactive: -12.7% | –
Cc1cccc(-n2c3c(cc(-c4nc(-c5ccc(Cl)cc5)cs4)c2=O)C(=O)CC(C)(C)C3)c1 | inactive: -18.5% | –
CCn1cc(C2N3CC4(CC)CN2CC(CC)(C3)C4=O)c2ccccc21 (stereo unspecified) | inactive: -25.2% | –
O=C(CN1CCSc2ccccc21)N1CCN(c2ccccc2)CC1 | inactive: -2.59% | –
CCc1ccc(NC(=O)c2cc(-c3cccs3)on2)cc1 | inactive: -14% | –
C=C[C@H]1CN2CC[C@H]1C[C@@H]2[C@@H](O)c1ccnc2ccc(OC)cc12 | inactive: -6.61% | –
CCc1ccc(CSc2nc(-c3ccccc3OC)nc3c2Cc2c(CO)cnc(C)c2O3)cc1 | inactive: -15.9% | –
O=C(C1CCCN(S(=O)(=O)c2cccc3nonc23)C1)N1CCN(c2cccc(Cl)c2)CC1 (stereo unspecified) | inactive: 16.5% | –
CCCn1c(=N)c(C(=O)NCc2cccnc2)cc2c(=O)n3cc(C)ccc3nc21 | inactive: -2.66% | –
COc1cccc(/C=C/c2nc(C#N)c(N3CCCCC3)o2)c1 | inactive: -12.5% | –
O=C(c1cnc2cc(-c3ccccc3)nn2c1)c1cc([N+](=O)[O-])ccc1O | inactive: 33.6% | –

SMILES | activation | Potency
Cc1ccccc1Cn1nc(C)c(NC(=O)c2cc(-c3ccc(F)cc3)on2)c1C | inactive: -9.81% | –
CSc1ccc(CCNC(=O)CCc2c(C)nc3c(-c4ccccc4)c(C)nn3c2C)cc1 | inactive: 4.27% | –
CCOc1ccccc1CNc1ncnc2c1nc1n2CCCC1 | inactive: -3.83% | –
Cc1ccc(Cn2ccn(CC(=O)Nc3ccccc3C(F)(F)F)c(=O)c2=O)cc1 | inactive: -0.388% | –
CCOc1ccc(CCNC(=O)CS(=O)Cc2nc(-c3ccc(C)cc3)oc2C)cc1OCC (stereo unspecified) | inactive: -12.9% | –
CCOC(=O)c1cnc2cc(C(F)(F)F)ccc2c1N1CCN(c2ccc(F)cc2)CC1 | inactive: -18% | –
COc1ccccc1CNC(=O)C1CCCN(c2nn3cc(-c4ccc(F)cc4)nc3s2)C1 (stereo unspecified) | inactive: -3.73% | –
COc1ccccc1CNC(=O)CCc1c(C)nc2cc(-c3ccccc3OC)nn2c1C | inactive: -6.21% | –
COc1ccc(CNC(=O)Cn2ccc3cc(S(=O)(=O)N4CCCCC4)ccc32)c(OC)c1 | inactive: -38.2% | –
Cc1ccc(NC(=O)CN2CCCN(Cc3ccccc3Cl)S2(=O)=O)c(C)c1 | inactive: -27% | –
CCOCCc1nn2c(=O)cc(COC(=O)COc3ccccc3Cl)nc2s1 | inactive: -8.44% | –
Cc1cc(Cl)ccc1NC(=O)CN1C(=O)CSc2ccc(S(=O)(=O)N(C)C)cc21 | inactive: -9.67% | –
COC(=O)c1ccccc1NC(=O)CSc1nc(-c2ccccc2)cc(C(F)(F)F)n1 | – | active: 10 µM
Cc1c(C(N)=O)cc([N+](=O)[O-])cc1[N+](=O)[O-] | inactive: -4.06% | –
CCOc1ccccc1NC(=O)Cn1c(=O)n(CCCC(=O)NCCOC)c(=O)c2cc(OC)c(OC)cc21 | inactive: -16% | –
CCOC(=O)c1c(C)[nH]c(C)c1S(=O)(=O)N1CCC(C(=O)Nc2ccc(F)cc2F)CC1 | inactive: 0.618% | –
CC(=O)c1ccc(NC(=O)c2ccc3c(c2)N(Cc2cccc(Cl)c2)C(=O)c2ccccc2S3(=O)=O)cc1 | inactive: -2.43% | –
CCc1ccccc1NC(=O)Cn1nnc(-c2nc(-c3ccc(C)cc3)no2)c1N | inactive: -9.06% | –
CCOC(=O)c1ccccc1NC(=O)CN1C(=O)CC(c2ccco2)Sc2ccccc21 (stereo unspecified) | inactive: 5.85% | –
Cc1ccc2c(c1)sc1nc(-c3cc4ccccc4oc3=O)cn12 | inactive: -8.29% | –
CCn1cc(C(=O)N2CCN(c3ccc(F)cc3)CC2)c(=O)c2cc(S(=O)(=O)N3CCOCC3)ccc21 | inactive: -10.3% | –
COc1ccc(N2CCN(c3c4c(nc5nncn35)CCC4)CC2)cc1 | inactive: -5.44% | –
COc1ccc(NC(=O)C(=O)NCC(c2ccc3c(c2)OCO3)N2CCN(C)CC2)cc1 (stereo unspecified) | inactive: -6.85% | –
Cc1oc(-c2ccc(Cl)cc2)nc1Cn1c(=O)cc(C)c2c(C)nn(-c3cccc(F)c3)c21 | inactive: -13.2% | –
